# Measured values: the supplement of paper PMC10369915
# This is one part of the list. Cut-off read from the data, not from the text of the source: active = 3.2 or more and inactive = the rest. Most of these values are background signal.
# Target: SHP2 C-SH2 domain E139D
# Assay: enrichment score (SH2-bound / input frequency) (ratio); bacterial display of known human phosphotyrosine sites (pTyr-Var adds point mutants) read by sequencing; higher = stronger binding; tyrosines were phosphorylated by kinases first
# Conditions: peptide library: pTyr-Var
# 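Note: displayed peptides selected on beads carrying the immobilized SH2 domain, with library peptides lacking any tyrosine serving as negative controls.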
row,Binder,enrichment score
1,MRTMGYMPREM [CABP5_Y62_T65R],inactive: 0.895
2,SREALYNEMDP [CACNA1A_Y794],inactive: 0.998
3,GNHISYFQSDG [CACNA1C_Y1757_V1755I_YF],inactive: 1.03
4,GNHVSYFQSDG [CACNA1C_Y1757_YF],inactive: 0.858
5,PRPACYPSTVS [CACNA1C_Y1832_G1831C],inactive: 0.794
6,PRPAGYPSMVS [CACNA1C_Y1832_T1835M],inactive: 0.833
7,VHHLVYHHHHH [CACNA1H_Y519],inactive: 3.19
8,EPSVDYCVVKI [CAD_Y735],inactive: 0.61
9,KSVSQYLEMDK [CAGE1_Y438],inactive: 0.83
10,KSLSQYLEMDK [CAGE1_Y438_V435L],inactive: 1.03
11,FNSLLYQVPTS [CALCOCO2_Y358_P357L],inactive: 1.4
12,KDGSGYISAAE [CALM1_Y100_N98S],inactive: 0.554
13,DGQVNYEEFVQ [CALM1_Y139],inactive: 0.617
14,KDGIGYISAAE [CALM2_Y100_N98I],inactive: 0.733
15,KDGNGYISVAE [CALM3_Y100_A103V],inactive: 0.484
16,IVAREYYSEAD [CAMK2A_Y106],inactive: 0.726
17,IVAREYYSDAD [CAMK2A_Y106_E109D],inactive: 0.823
18,IVAREYFSDAD [CAMK2A_Y106_E109D_YF],inactive: 0.781

# Target: SHP2 C-SH2 domain wild-type
# Assay: as above
# Conditions: peptide library: pTyr-Var
row,Binder,enrichment score
1,MRTMGYMPREM [CABP5_Y62_T65R],inactive: 0.856
2,SREALYNEMDP [CACNA1A_Y794],inactive: 0.829
3,GNHISYFQSDG [CACNA1C_Y1757_V1755I_YF],inactive: 0.67
4,GNHVSYFQSDG [CACNA1C_Y1757_YF],inactive: 0.723
5,PRPACYPSTVS [CACNA1C_Y1832_G1831C],inactive: 0.766
6,PRPAGYPSMVS [CACNA1C_Y1832_T1835M],inactive: 0.775
7,VHHLVYHHHHH [CACNA1H_Y519],active: 3.46
8,EPSVDYCVVKI [CAD_Y735],inactive: 0.5
9,KSVSQYLEMDK [CAGE1_Y438],inactive: 0.956
10,KSLSQYLEMDK [CAGE1_Y438_V435L],inactive: 0.644
11,FNSLLYQVPTS [CALCOCO2_Y358_P357L],inactive: 1.17
12,KDGSGYISAAE [CALM1_Y100_N98S],inactive: 0.448
13,DGQVNYEEFVQ [CALM1_Y139],inactive: 0.721
14,KDGIGYISAAE [CALM2_Y100_N98I],inactive: 0.488
15,KDGNGYISVAE [CALM3_Y100_A103V],inactive: 0.509
16,IVAREYYSEAD [CAMK2A_Y106],inactive: 0.713
17,IVAREYYSDAD [CAMK2A_Y106_E109D],inactive: 0.884
18,IVAREYFSDAD [CAMK2A_Y106_E109D_YF],inactive: 0.685

# Target: SHP2 N-SH2 domain L43F
# Assay: as above
# Conditions: peptide library: pTyr-Var
row,Binder,enrichment score
1,MRTMGYMPREM [CABP5_Y62_T65R],inactive: 0.809
2,SREALYNEMDP [CACNA1A_Y794],inactive: 1.07
3,GNHISYFQSDG [CACNA1C_Y1757_V1755I_YF],inactive: 0.885
4,GNHVSYFQSDG [CACNA1C_Y1757_YF],inactive: 0.838
5,PRPACYPSTVS [CACNA1C_Y1832_G1831C],inactive: 0.664
6,PRPAGYPSMVS [CACNA1C_Y1832_T1835M],inactive: 0.984
7,VHHLVYHHHHH [CACNA1H_Y519],active: 3.23
8,EPSVDYCVVKI [CAD_Y735],inactive: 0.426
9,KSVSQYLEMDK [CAGE1_Y438],inactive: 0.972
10,KSLSQYLEMDK [CAGE1_Y438_V435L],inactive: 0.931
11,FNSLLYQVPTS [CALCOCO2_Y358_P357L],inactive: 1.19
12,KDGSGYISAAE [CALM1_Y100_N98S],inactive: 0.559
13,DGQVNYEEFVQ [CALM1_Y139],inactive: 0.777
14,KDGIGYISAAE [CALM2_Y100_N98I],inactive: 0.543
15,KDGNGYISVAE [CALM3_Y100_A103V],inactive: 0.477
16,IVAREYYSEAD [CAMK2A_Y106],inactive: 0.72
17,IVAREYYSDAD [CAMK2A_Y106_E109D],inactive: 0.806
18,IVAREYFSDAD [CAMK2A_Y106_E109D_YF],inactive: 0.878

# Target: SHP2 N-SH2 domain T42A
# Assay: as above
# Conditions: peptide library: pTyr-Var
row,Binder,enrichment score
1,MRTMGYMPREM [CABP5_Y62_T65R],inactive: 0.777
2,SREALYNEMDP [CACNA1A_Y794],inactive: 0.821
3,GNHISYFQSDG [CACNA1C_Y1757_V1755I_YF],inactive: 0.791
4,GNHVSYFQSDG [CACNA1C_Y1757_YF],inactive: 0.643
5,PRPACYPSTVS [CACNA1C_Y1832_G1831C],inactive: 0.637
6,PRPAGYPSMVS [CACNA1C_Y1832_T1835M],inactive: 0.78
7,VHHLVYHHHHH [CACNA1H_Y519],inactive: 2.97
8,EPSVDYCVVKI [CAD_Y735],inactive: 0.47
9,KSVSQYLEMDK [CAGE1_Y438],inactive: 1.99
10,KSLSQYLEMDK [CAGE1_Y438_V435L],inactive: 1.76
11,FNSLLYQVPTS [CALCOCO2_Y358_P357L],inactive: 1.54
12,KDGSGYISAAE [CALM1_Y100_N98S],inactive: 0.533
13,DGQVNYEEFVQ [CALM1_Y139],inactive: 0.69
14,KDGIGYISAAE [CALM2_Y100_N98I],inactive: 0.596
15,KDGNGYISVAE [CALM3_Y100_A103V],inactive: 0.612
16,IVAREYYSEAD [CAMK2A_Y106],inactive: 0.639
17,IVAREYYSDAD [CAMK2A_Y106_E109D],inactive: 0.855
18,IVAREYFSDAD [CAMK2A_Y106_E109D_YF],inactive: 0.695

# Target: SHP2 N-SH2 domain T52S
# Assay: as above
# Conditions: peptide library: pTyr-Var
row,Binder,enrichment score
1,MRTMGYMPREM [CABP5_Y62_T65R],inactive: 0.867
2,SREALYNEMDP [CACNA1A_Y794],inactive: 0.984
3,GNHISYFQSDG [CACNA1C_Y1757_V1755I_YF],inactive: 0.904
4,GNHVSYFQSDG [CACNA1C_Y1757_YF],inactive: 0.697
5,PRPACYPSTVS [CACNA1C_Y1832_G1831C],inactive: 0.671
6,PRPAGYPSMVS [CACNA1C_Y1832_T1835M],inactive: 1.09
7,VHHLVYHHHHH [CACNA1H_Y519],inactive: 2.96
8,EPSVDYCVVKI [CAD_Y735],inactive: 0.73
9,KSVSQYLEMDK [CAGE1_Y438],inactive: 0.821
10,KSLSQYLEMDK [CAGE1_Y438_V435L],inactive: 0.893
11,FNSLLYQVPTS [CALCOCO2_Y358_P357L],inactive: 1.32
12,KDGSGYISAAE [CALM1_Y100_N98S],inactive: 0.647
13,DGQVNYEEFVQ [CALM1_Y139],inactive: 0.727
14,KDGIGYISAAE [CALM2_Y100_N98I],inactive: 0.513
15,KDGNGYISVAE [CALM3_Y100_A103V],inactive: 0.508
16,IVAREYYSEAD [CAMK2A_Y106],inactive: 0.773
17,IVAREYYSDAD [CAMK2A_Y106_E109D],inactive: 0.771
18,IVAREYFSDAD [CAMK2A_Y106_E109D_YF],inactive: 0.919

# Target: SHP2 N-SH2 domain wild-type
# Assay: as above
# Conditions: peptide library: pTyr-Var
row,Binder,enrichment score
1,MRTMGYMPREM [CABP5_Y62_T65R],inactive: 0.897
2,SREALYNEMDP [CACNA1A_Y794],inactive: 1.07
3,GNHISYFQSDG [CACNA1C_Y1757_V1755I_YF],inactive: 0.755
4,GNHVSYFQSDG [CACNA1C_Y1757_YF],inactive: 0.685
5,PRPACYPSTVS [CACNA1C_Y1832_G1831C],inactive: 0.788
6,PRPAGYPSMVS [CACNA1C_Y1832_T1835M],inactive: 0.939
7,VHHLVYHHHHH [CACNA1H_Y519],active: 3.55
8,EPSVDYCVVKI [CAD_Y735],inactive: 0.637
9,KSVSQYLEMDK [CAGE1_Y438],inactive: 0.818
10,KSLSQYLEMDK [CAGE1_Y438_V435L],inactive: 1.16
11,FNSLLYQVPTS [CALCOCO2_Y358_P357L],inactive: 1.37
12,KDGSGYISAAE [CALM1_Y100_N98S],inactive: 0.752
13,DGQVNYEEFVQ [CALM1_Y139],inactive: 0.808
14,KDGIGYISAAE [CALM2_Y100_N98I],inactive: 0.544
15,KDGNGYISVAE [CALM3_Y100_A103V],inactive: 0.55
16,IVAREYYSEAD [CAMK2A_Y106],inactive: 0.752
17,IVAREYYSDAD [CAMK2A_Y106_E109D],inactive: 0.826
18,IVAREYFSDAD [CAMK2A_Y106_E109D_YF],inactive: 0.937
